# Experimental data: PubChem BioAssay (NCATS)
# “And” between values parts separate entries of the source, which are not always exact repeats. Identical values can stand only once. Inconclusive results, whose numbers are uncertain, are shown with a selection of clear calls. For some of these results: Where the call is inconclusive, the potency comes from a doubtful curve fit. The source holds several records for some structures; these can differ, active in one and inactive in another. The source made the active and inactive calls. Unless noted, calls come from the whole dose curve; as a rule, active = well fitted curve in the direction sought with a large enough effect; inconclusive = small, poorly fitted or top-dose-only effect, or another doubt; inactive = no such curve, though single readings can be large; an effect the other way counts as inactive or inconclusive.
# Key:
# [1] = Cellular Toxicity (caspase-3) NIH 3T3 (AID 666); note: potency is the fitted concentration of half-maximal effect;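 for caspase-3 activation: 0% = DMSO basal and 100% = 100 µM tamoxifen stimulation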
# Method in brief: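 Cells were plated at 1000 per well and incubated 5 hr at 37°C, then compound was added for 16 hr. Caspase-Glo 3/7 reagent followed for 20 min at room temperature before luminescence was read.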
# [2] = Cellular Toxicity (caspase-3) Jurkat (AID 655); settings: Jurkat caspase-3 activation, luminescence; caspase-3 activation: at 92.2 µM (top of the series), DMSO = 0%, tamoxifen = 100%;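 note: cells exposed to compound for 16 h at 37 °C before reading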; note: potency is the fitted concentration of half-maximal effect
# Method in brief: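 qHTS in human Jurkat T-cell leukemia line: 16 hr compound treatment at 37 °C, caspase-3/7 activity measured by Caspase-Glo luminescence. AC50 derived from Hill equation.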
# [3] = Cellular Toxicity (caspase-3) H-4-II-E (AID 663); settings: H-4-II-E rat hepatoma; Potency: caspase-3 activation; caspase-3 activation: at 92.2 µM (top of the series), scaled: DMSO 0%, 100 µM tamoxifen 100%; note: potency is the fitted concentration of half-maximal effect;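 for caspase-3 activation: cells exposed to compound for 16 hr before readout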
# Method in brief: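 Caspase 3/7 activation measured in H-4-II-E cells in complete culture medium after 16 hr treatment at 37 °C, using luciferase-coupled substrate readout; AC50 values come from Hill-equation fits of normalized concentration-response data.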
# [4] = Cellular Toxicity (caspase-3) Renal Proximal Tubule (AID 667); settings: renal proximal tubule cells; at 91.7 µM (top of the series) unless noted;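 note: cells exposed to compound for 16 hours at 37 °C before detection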
# Method in brief: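 Caspase-Glo 3/7 read-out, rat primary kidney proximal tubule cells. Compound exposure 16 h, 37 °C; detection after 1 h at RT. Activity scaled to DMSO and 10 uM staurosporine.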
# [5] = Cellular Toxicity (caspase-3) HUV-EC-C (AID 656); note: potency is the fitted concentration of half-maximal effect
# Method in brief: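 Concentration-dependent caspase 3/7 induction was assessed in HUV-EC-C cells exposed for 16 hours. Data scaled between DMSO and tamoxifen (100 uM) controls.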
# [6] = Cellular Toxicity (caspase-3) Mesangial (AID 660); settings: mesangial cells; Potency: caspase-3 activation; caspase-3 activation: at 91.7 µM (top of the series), normalized: DMSO 0%, 100 µM tamoxifen 100%;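 note: combined caspase 3 and 7 activity read by Caspase-Glo luminescence; cells exposed to compound for 16 h before the caspase read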; note: potency is the fitted concentration of half-maximal effect
# Method in brief: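 Seed cells derived from normal human renal glomeruli, incubate 5 h, add compounds across concentrations and incubate 16 h at 37 °C. Caspase 3/7 activation is then quantified by luciferase light, with AC50 derived by Hill modeling.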
# [7] = Cellular Toxicity (caspase-3) HepG2 (AID 654); settings: HepG2 caspase-3 activation, luminescence; note: potency is the fitted concentration of half-maximal effect
# Method in brief: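 Caspase 3/7 activation in HepG2 is measured as rising luminescence after a 16 hr treatment at 37 °C. Values are scaled between DMSO basal and 100 uM tamoxifen, and AC50 is fitted with the Hill equation.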
# [8] = Cellular Toxicity (caspase-3) SHSY5Y (AID 657); settings: SH-SY5Y caspase-3 activation;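 note: potency is the fitted concentration of half-maximal effect; cells exposed to compound for 16 hours at 37 °C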
# Method in brief: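 Readout: caspase-cleaved peptide-aminoluciferin substrate driving luciferase light in SH-SY5Y neuroblastoma cells after 16 h treatment. Response normalized to DMSO and 10 uM staurosporine controls.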
# [9] = Cellular Toxicity (caspase-3) SK-N-SH (AID 661); settings: SK-N-SH caspase-3 activation, qHTS; caspase-3 activation: at 91.7 µM (top of the series), DMSO as zero, staurosporine as full; note: potency is the fitted concentration of half-maximal effect
# Method in brief: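 Cells were seeded and incubated 5 hr at 37 °C, dosed with compound over a concentration range for 16 hr, then given Caspase-Glo 3/7 reagent for 1 hr at room temperature before luminescence reading.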
# [10] = qHTS Assay for Identification of Small Molecule Antagonists for NFkB Signaling Pathway (AID 895; active = well fitted inhibition curve with a large enough effect in the signal ratio, with a control signal flat, not every such curve was filed as active; inconclusive = small, poorly fitted or top-dose-only effect, or effect the other way, or a change in a side signal; the % refers to the signal ratio; note: potency is the fitted concentration of half-maximal effect; for activity change, negative = inhibition: % is set by controls: 0 for no effect and ±100 for the full control effect); settings: NFkB beta-lactamase reporter cells, FRET ratio 460/530; activity change, negative = inhibition: at 38.3 µM (top of the series)
# Method in brief: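 NFkB-bla ME-180 cervical carcinoma cells with beta-lactamase reporter under NFkB response element; compounds added, then TNF alpha at 10 pM final (EC50), 5 h at 37 C. LiveBLAzer substrate 2 h, room temperature; emission 460/530 nm at 405 nm excitation.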
# [11] = Cellular Toxicity (caspase-3) Hek293 (AID 664); settings: HEK293 caspase-3 activation, DMSO = 0%, 100 µM tamoxifen = 100%; at 92.2 µM (top of the series);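 note: cells exposed to compound for 16 h at 37 °C before readout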
# Method in brief: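 qHTS, HEK293 (human embryonic kidney), 16 h cpd exposure in complete medium. Caspase-3/7 activation = luminescence increase; normalized to DMSO/100 uM tamoxifen; Hill-fit AC50.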
# [12] = target: Cytochrome P450 3A4 (Homo sapiens) (UniProt P08684); assay: qHTS Assay for Activators of Cytochrome P450 3A4 (AID 885); settings: recombinant CYP3A4, Luciferin-PPXE luminescence, 60 min; activity change, positive = activation: at 57.1 µM (top of the series); note: potency is the fitted concentration of half-maximal effect; nearly all actives have a fitted effect of over 65% in size
# Sequence of UniProt P08684 (P08684 whole entry, looked up): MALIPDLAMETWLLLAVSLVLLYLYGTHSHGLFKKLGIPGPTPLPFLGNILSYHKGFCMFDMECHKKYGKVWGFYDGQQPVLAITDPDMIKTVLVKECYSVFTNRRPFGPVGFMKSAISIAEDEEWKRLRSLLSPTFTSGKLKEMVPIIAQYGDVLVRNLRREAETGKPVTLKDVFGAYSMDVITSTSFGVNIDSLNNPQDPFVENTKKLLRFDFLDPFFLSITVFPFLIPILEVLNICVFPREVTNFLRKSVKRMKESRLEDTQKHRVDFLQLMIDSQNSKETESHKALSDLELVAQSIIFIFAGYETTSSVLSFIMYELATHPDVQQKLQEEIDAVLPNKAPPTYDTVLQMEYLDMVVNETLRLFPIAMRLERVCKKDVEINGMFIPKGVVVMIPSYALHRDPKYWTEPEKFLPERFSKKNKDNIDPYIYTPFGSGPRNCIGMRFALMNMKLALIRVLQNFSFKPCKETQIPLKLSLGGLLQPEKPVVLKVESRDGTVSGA
# Method in brief: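 Luminescent readout of luciferin formed from 25 uM Luciferin-PPXE (KM level) by 20 nM CYP3A4 in 200 mM KPO4, with 60 min NADPH-driven reaction at room temperature after 10 min compound exposure. Ketoconazole (57 uM) defined 100% inhibition.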
# [13] = Cellular Toxicity (caspase-3) BJ (AID 658); settings: BJ fibroblasts, caspase-3 activation, luminescence; note: potency is the fitted concentration of half-maximal effect
# Method in brief: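 Plated BJ cells (1000/well) rested 5 hr, received compound for 16 hr at 37 °C, then Caspase-Glo 3/7 reagent for 1 hr at room temperature before luminescence reading.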
# [14] = Cellular Toxicity (caspase-3) N2a (AID 665); settings: N2a cells, luminescence, normalized: DMSO 0%, 10 µM staurosporine 100%; at 92.2 µM (top of the series);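 note: compound exposure lasted 16 h at 37 °C before readout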
# Method in brief: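 Caspase-3/7 activation, measured as increased luminescence from aminoluciferin release, is quantified in mouse N2a cells exposed to compounds for 16 h. Values are normalized to DMSO and 10 uM staurosporine, with AC50 derived by Hill modelling.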
# Tags give direction and shape of the fitted curve or compound fluorescence and quenching.
smiles,measurement,setting,value
CCCCOC(=O)c1ccccc1C(=O)OCc1ccccc1,Potency,[1],inactive
C[C@@H]1C[C@@H]([C@H](O)CC2CC(=O)NC(=O)C2)C(=O)[C@@H](C)C1,caspase-3 activation,[2],inconclusive: 60.7% and inconclusive: 63.2%
same,Potency,[3],active: 15.8 µM
same,Potency,[1],"inconclusive: 12.6 µM [rising, full curve, poor fit] and inconclusive: 5.01 µM [rising, full curve, poor fit]"
same,caspase-3 activation,[4],inconclusive: 58.8%
OCCCBr,Potency,[5],inactive
COC(C)(C)CCCC(C)C/C=C/C(C)=C/C(=O)OC(C)C (stereo unspecified),Potency,[6],inactive
CN(C)C(=S)SSC(=S)N(C)C,Potency,[2],active: 0.0631 µM
same,Potency,[6],active: 0.398 µM
O=C(O)CCCc1ccc(N(CCCl)CCCl)cc1,Potency,[7],"inconclusive: 79.4 µM [rising, single point]"
same,caspase-3 activation,[2],active: 96.5%
same,Potency,[8],"inconclusive: 31.6 µM [rising, partial curve]"
same,caspase-3 activation,[9],inconclusive: 51.9%
same,Potency,[10],active: 8.91 µM
NCCc1ccc(O)cc1,Potency,[1],"inconclusive: 31.6 µM [rising, single point]"
same,"activity change, negative = inhibition",[10],inconclusive: -36.7%
Clc1ccc(COC(Cn2ccnc2)c2ccc(Cl)cc2Cl)cc1 (stereo unspecified),Potency,[7],"inconclusive: 79.4 µM [rising, single point]"
same,Potency,[5],"inconclusive: 63.1 µM [rising, single point]"
same,caspase-3 activation,[3],inconclusive: 78.8%
same,caspase-3 activation,[11],inconclusive: 30.6%
Oc1c(Br)cc(Br)cc1Br,caspase-3 activation,[2],inconclusive: 106%
same,Potency,[12],active: 15.8 µM
O=C(CCl)c1ccc(Cl)cc1Cl,Potency,[2],active: 0.251 µM
same,Potency,[8],active: 2.51 µM
same,Potency,[9],active: 1.58 µM
same,caspase-3 activation,[3],inconclusive: -4.28%
same,caspase-3 activation,[11],inconclusive: -8.61%
same,Potency,[1],inactive
O=C1C2CC=CCC2C(=O)N1SC(Cl)(Cl)Cl (stereo unspecified),Potency,[2],active: 1.58 µM
same,caspase-3 activation,[2],inconclusive: -7.3%
same,Potency,[8],"inconclusive: 2.51 µM [rising, partial curve]"
same,Potency,[13],"inconclusive: 12.6 µM [rising, single point]"
same,caspase-3 activation,[6],inconclusive: -3.81%
same,caspase-3 activation,[9],inconclusive: -4.39% and inconclusive: -5.11%
same,caspase-3 activation,[11],inconclusive: -9.47%
same,Potency,[1],"inconclusive: 12.6 µM [rising, single point]"
[O]=[Cr](=[O])([OH])[O][Cr](=[O])(=[O])[OH],Potency,[2],active: 31.6 µM
same,caspase-3 activation,[2],inconclusive: 40.1%
same,Potency,[9],active: 20 µM
same,caspase-3 activation,[9],inconclusive: 60.2% and active: 80.2%
same,caspase-3 activation,[14],inconclusive: 45%
same,Potency,[1],"inconclusive: 50.1 µM [rising, partial curve]"
same,caspase-3 activation,[4],inconclusive: 17% and active: 101% and inconclusive: 58.2%
O=CC=O,caspase-3 activation,[11],inactive: -0.0198%
N[C@@H](Cc1ccc(N(CCCl)CCCl)cc1)C(=O)O,Potency,[2],active: 25.1 µM
same,Potency,[8],active: 2.51 µM
same,caspase-3 activation,[6],inconclusive: 36.4%
same,caspase-3 activation,[9],inconclusive: 44.1%
same,caspase-3 activation,[3],active: 116%
same,Potency,[1],"inconclusive: 79.4 µM [rising, single point]"
same,caspase-3 activation,[4],inconclusive: 61.8%
C=CC(=O)NCNC(=O)C=C,caspase-3 activation,[11],inactive: -1.78%
CC(C)Nc1ccc(Nc2ccccc2)cc1,caspase-3 activation,[3],inconclusive: -2.96%
same,caspase-3 activation,[4],"inactive: 11.6% [at 91.7 µM, primary cells freshly taken from rat, solvent-only wells 0%, staurosporine 100%]"
C[C@]12CCC(=O)C[C@@H]1CC[C@@H]1[C@@H]2CC[C@]2(C)[C@@H](O)CC[C@@H]12,Potency,[2],inactive
Oc1cccc2cccnc12,Potency,[6],"inconclusive: 25.1 µM [rising, full curve, poor fit]"
same,caspase-3 activation,[6],inconclusive: 34.8%
Clc1ccc(C(c2ccc(Cl)cc2)C(Cl)(Cl)Cl)cc1,Potency,[5],active: 50.1 µM
same,Potency,[9],inactive
same,caspase-3 activation,[11],inconclusive: 41.2%
CC[n+]1c(-c2ccccc2)c2cc(N)ccc2c2ccc(N)cc21,Potency,[1],"inconclusive: 5.01 µM [falling, full curve]"
